Source: PubChem BioAssay AID488969 (Vanderbilt High Throughput Screening Facility, 2010)
The full ranking holds about 110,000 compounds; the median of “z-score” is about -0.1, and the highest 2% start at about 2. This is one part of the list.

These molecules were tested against Metabotropic glutamate receptor 8 (Rattus norvegicus) (UniProt P70579) (assay: rat mGluR8 modulators via GIRK flux, primary screen, cell-based, thallium flux, HTS (AID 488969)). Conditions: HEK293 rat mGluR8, GIRK (G protein-gated inwardly rectifying potassium channel) thallium flux, FluoZin2; at 10 µM; stronger effect = higher value; submaximal glutamate (EC20) added with thallium.
UniProt P70579, sequence (P70579 whole entry, looked up): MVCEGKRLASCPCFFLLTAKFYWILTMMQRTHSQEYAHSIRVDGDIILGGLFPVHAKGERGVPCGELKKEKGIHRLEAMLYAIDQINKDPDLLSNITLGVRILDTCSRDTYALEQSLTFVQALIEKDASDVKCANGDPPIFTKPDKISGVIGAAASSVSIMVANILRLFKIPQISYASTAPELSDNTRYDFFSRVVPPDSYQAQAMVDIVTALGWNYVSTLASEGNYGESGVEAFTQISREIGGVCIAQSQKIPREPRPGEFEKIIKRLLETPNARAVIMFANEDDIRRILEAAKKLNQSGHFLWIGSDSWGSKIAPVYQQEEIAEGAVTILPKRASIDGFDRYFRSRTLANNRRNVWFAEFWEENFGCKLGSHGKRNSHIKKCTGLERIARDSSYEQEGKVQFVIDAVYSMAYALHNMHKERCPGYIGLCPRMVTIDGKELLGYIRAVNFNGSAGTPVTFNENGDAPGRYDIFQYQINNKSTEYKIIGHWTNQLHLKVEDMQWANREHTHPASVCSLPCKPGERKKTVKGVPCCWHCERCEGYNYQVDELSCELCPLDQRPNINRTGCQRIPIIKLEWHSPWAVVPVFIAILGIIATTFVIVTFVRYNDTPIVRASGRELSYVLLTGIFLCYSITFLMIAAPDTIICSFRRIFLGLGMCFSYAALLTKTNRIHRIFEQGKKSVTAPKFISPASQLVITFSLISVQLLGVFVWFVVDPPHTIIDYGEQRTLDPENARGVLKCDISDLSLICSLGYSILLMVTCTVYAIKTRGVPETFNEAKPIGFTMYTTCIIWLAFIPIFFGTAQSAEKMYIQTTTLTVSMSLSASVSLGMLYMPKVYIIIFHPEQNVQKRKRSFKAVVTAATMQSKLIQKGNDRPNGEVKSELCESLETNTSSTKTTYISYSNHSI

Row | SMILES | z-score
1 | C=CCN=C1SC(C)C(=O)N1S(=O)(=O)c1ccccc1 (configuration not stated) | 0.65
2 | CCc1c(C)sc(NC(=O)c2cnn3cccnc23)c1C#N | 0.33
3 | COc1ccc(C(=O)Nc2ccc3c(c2)Cc2ccccc2-3)cc1 | 0.0325
4 | CC12CN(Cc3ccccc3)CC(C)(CN(Cc3ccccc3)C1)C2=NO | 2.4
5 | COc1ccc(C(=O)OC(C)C(=O)Nc2cc(C(F)(F)F)ccc2Cl)c(OC)c1OC (configuration not stated) | -0.379
6 | Cc1nnc(NC(=O)CN2C(=O)c3ccccc3S2(=O)=O)s1 | 1.88
7 | O=C(CNC(=O)C1CCCCC1)Nc1cc(Cl)ccc1Cl | -0.102
8 | CCOC(=O)c1ccc(NC2=CC(=O)C(=O)c3ccccc32)cc1 | -0.548
9 | C#CC(=O)N(c1cc(OC)ccc1OC)C(C(=O)NC1CCCC1)c1cccs1 (configuration not stated) | -0.0546
10 | COc1ccc(NC(=O)Cc2c(F)cccc2Cl)c(OC)c1 | -0.567
11 | COc1ccc(NC(=O)NCc2ccccn2)cc1 | 0.00957
12 | Cc1[nH]c2ccccc2c1C(=O)CSc1nncn1C | -0.111
13 | CCOC(=O)CSc1nnc(-c2cccnc2)n1Cc1ccccc1 | 0.462
14 | S=C(NCc1ccncc1)Nc1ccc(Cl)c(Cl)c1 | 1.78
15 | CCCCOC(=O)C(C)Oc1ccc(=O)n(-c2ccccc2)n1 (configuration not stated) | -0.164
16 | Cc1onc(-c2ccccc2)c1C(=O)N1CCN(CCc2ccccc2)CC1 | -0.591
17 | COc1ccc(-n2nc(N)c3c(=O)oc(N(C)C)nc32)cc1 | -0.0834
18 | Cc1noc(C)c1C(=O)NC1CCCc2ccccc21 (configuration not stated) | 0.0903
19 | O=C(Cn1[nH]c(=O)c2ccccc2c1=O)NCc1cccnc1 | -0.377
20 | CCN(CC)c1ccc(NC(=O)CN2CCN(S(=O)(=O)c3cc(Cl)ccc3OC)CC2)cc1 | -0.269
21 | Cc1ccc(N(CC(=O)Nc2ccccc2C(=O)N2CCOCC2)S(C)(=O)=O)cc1 | 0.00258
22 | COc1cccc(C2c3c(-c4ccccc4)n[nH]c3C(=O)N2c2ccc(C(=O)O)cc2)c1 (configuration not stated) | -0.182
23 | N#Cc1c(NC(=O)CCn2cnc3ccccc3c2=O)oc(-c2ccccc2)c1-c1ccccc1 | -0.279

Row | SMILES | z-score
24 | COc1ccc(C)cc1S(=O)(=O)N1CCCCC1 | -0.208
25 | COc1ccccc1NC(=O)CN1CCN(c2ccccc2F)CC1 | -0.346
26 | CN(CC(=O)O/N=C(\N)c1cccc([N+](=O)[O-])c1)S(=O)(=O)c1ccccc1 | -0.668
27 | O=C(CN1CCC2(CC1)OCCO2)c1c[nH]c2ccccc12 | 0.393
28 | CC(CCc1ccc(O)cc1)N(C)CCc1ccccc1 (configuration not stated) | 0.807
29 | Cc1ccccc1C(=O)Nc1cccc(N)c1 | 0.142
30 | Cc1ccc(NC(=O)COc2ccc(S(=O)(=O)N3CCOCC3)cc2)cc1 | -0.358
31 | Cc1[nH]c2ccccc2c1C(=O)CN1CCCCC1CCO (configuration not stated) | -0.607
32 | Fc1nc(N2CCCC2)c(F)c(Oc2ccccc2Oc2c(F)c(F)nc(N3CCCC3)c2F)c1F | -0.167
33 | CC(C)CC(=O)N1CCN(S(=O)(=O)c2ccc3ccccc3c2)CC1 | -1.99
34 | Cn1c(=O)n(C)c2cc(NC(=O)c3cc4ccccc4o3)ccc21 | -0.265
35 | Cc1cccc(NC(=O)CSc2nc3ccccc3c3nc(CCc4c(C)n[nH]c4C)nn23)c1 | 0.29
36 | Cn1c(=O)[nH]c(=O)c2c1nc(SCCN1CCOCC1)n2CCCc1ccccc1 | 0.05
37 | Cc1c(C#N)c(N=CN(C)C)c(C(=O)c2ccc(Br)cc2)n1-c1ccccc1 | 0.909
38 | COC(=O)c1cc(COC(=O)c2cccnc2SC)oc1C | -0.0574
39 | COc1ccc(C(=O)NCCCn2ccnc2)cc1 | 0.238
40 | CC(C)(C)n1nnnc1C(c1ccc(F)cc1)N1CCN(Cc2ccc3c(c2)OCO3)CC1 (configuration not stated) | -0.285
41 | CC(C)CCN1C(=O)c2ccc(-c3nc4ccccc4c(=O)o3)cc2C1=O | -0.897
42 | COc1cccc(C(=O)Oc2c(CN3CCOCC3)cc(Cl)c3cccnc23)c1 | -0.276
43 | Cc1ccc(C)c(N2CCN(C(=O)Cn3c(=O)[nH]c4ccsc4c3=O)CC2)c1 | 0.361
44 | CC1(CC(=O)O)C(=O)N=C2C=CC=CN21 (configuration not stated) | 0.954
45 | CCn1c(SCC(=O)Nc2nccs2)nnc1-c1ccc(C)cc1 | -0.755
46 | COc1ccccc1-c1cc(C(=O)NCCc2ccccc2)no1 | 0.025

Row | SMILES | z-score
47 | N/C(=N\OC(=O)c1ccccc1Cl)c1ccccc1 | -0.0875
48 | CC(C)c1nnc(NC(=O)C2CCCCC2)s1 | -0.261
49 | CC(c1nnc(SCC(=O)NC(=O)NCc2ccco2)n1-c1ccc(Cl)cc1)N(C)C (configuration not stated) | 0.264
50 | CN(C)C(=O)COC(=O)[C@H](Cc1ccccc1)NC(=O)c1ccco1 | 0.0766
51 | Cc1ccc(NC(=O)c2ccccc2F)nc1 | 0.244
52 | COC(=O)COc1ccc(S(=O)(=O)Nc2ccc3c(c2)OCCO3)cc1Cl | -0.523
53 | O=C(NCCN1CCOCC1)c1ccc2c(c1)ncn2C1CCCCC1 | -0.67
54 | C=CCn1c(CNc2ccc(C)cc2)nnc1SCC(=O)N/N=C/c1ccc(O)cc1 | -0.147
55 | Cc1ccc(NC(=S)Nc2ccc3nc(-c4ccccn4)c(-c4ccccn4)nc3c2)cc1C | -0.183
56 | CCN(CC)CCNC(=O)Cn1c(-c2ccccn2)nc2ccccc21 | -1.21
57 | C=CCNC(=S)Nc1ccccc1 | 0.552
58 | CC1CCCCN1C(=O)Cn1cc(C#N)c2ccccc21 (configuration not stated) | -0.0675
59 | CC1CCC(NC(=O)Cn2c3c(c(-c4ccccc4Cl)cc2=O)CCC3)CC1 (configuration not stated) | -0.274
60 | CN(C)S(=O)(=O)c1ccc(C(=O)Nc2ccccc2C(=O)O)cc1 | -0.317
61 | COc1ccccc1NC1=NCC(=O)N1Cc1ccccc1 | -0.136
62 | COc1ccc(C2C3=C(Nc4ncnn42)c2ccccc2CC3)cc1OC (configuration not stated) | -2.34
63 | O=C(NNC(=O)c1sc2cccc(Cl)c2c1Cl)NC1CCCCC1 | 0.896
64 | N#Cc1sc2nc3c(c(-c4cccnc4)c2c1N)CCC3 | -0.553
65 | O=C(CCN1C(=O)c2cccc3cccc(c23)C1=O)N1CCN(Cc2ccc3c(c2)OCO3)CC1 | 0.0513
66 | Cc1ccc(OCC(=O)Nn2cnc3ccccc32)cc1 | 0.228
67 | CCOC(=O)CC1=NN(c2ccccc2)C(=O)/C1=C\c1ccc(OC)cc1OC | 0.064
68 | CC(NC(=O)c1cc(-c2ccc3c(c2)OCO3)nc2ccccc12)C(C)(C)C (configuration not stated) | -0.477
69 | N#Cc1ccccc1NC(=O)COC(=O)c1ccc(S(=O)(=O)N2CCCC2)cc1 | -1

Row | SMILES | z-score
70 | CCOC(=O)c1sc(NC(=O)CSc2nncs2)c(C(=O)OCC)c1C | 0.994
71 | Clc1ccc(COc2ccccn2)c(Cl)c1 | -0.186
72 | CCOC(=O)c1nn(-c2ccc(F)cc2)c2nc(CC(C)C)c(C#N)c(=O)n12 | -0.218
73 | O=C1c2cccnc2C(Nc2ccc(S(=O)(=O)N3CCCCCC3)cc2)N1Cc1ccccc1 (configuration not stated) | 1.19
74 | Cc1onc(-c2c(Cl)cccc2Cl)c1C(=O)NCCCN1CCOCC1 | -0.322
75 | CCOCCOC(=O)c1cccc(NC(=O)OCC)c1 | 0.0997
76 | O=C(CCCc1ccccc1)NCc1cn2ccsc2n1 | -0.396
77 | COC(=O)[C@H](C)NC(=O)NC1CCN(Cc2ccccc2)CC1 | 0.292
78 | CCC(C)Sc1nnc(Cc2cc(=O)[nH]c(=O)[nH]2)n1-c1ccc(F)cc1 (configuration not stated) | -0.203
79 | O=C(O)CCC(=O)N1CCN(c2cccc(Cl)c2)CC1 | 0.125
80 | Cc1cc(=O)oc2ccc(OCC(=O)O)cc12 | -0.48
81 | O=C(NCc1ccc2c(c1)OCO2)c1ccc2c(c1)C(=O)N(Cc1cccnc1)C2=O | -0.239
82 | Cc1ccn2c(NC3CCCCC3)c(C(C)C)nc2c1 | 2.52
83 | O=C(Nc1ccc2c(c1)OCO2)c1cnc2n(c1=O)CCS2 | -0.0822
84 | CC(C)(C)C(=O)Nc1c2c(nc3c1CCC3)CCCC2 | 1.1
85 | Cn1c(SCC(=O)Nc2ccc(N3CCOCC3)c(Cl)c2)nnc1-c1ccccc1 | -0.0676
86 | COC(=O)c1ccc(NC(=S)N2CCN(Cc3cccc(C)c3)CC2)cc1 | -0.381
87 | O=C1C(c2ccccc2)SC(=Nc2ccccc2)N1S(=O)(=O)c1ccccc1 (configuration not stated) | -0.117
88 | COc1cc2[nH]c3c(N4CCC(C(N)=O)CC4)ncnc3c2cc1OC | -0.277
89 | CCOC(=O)CSc1nnc(Cn2c(=O)sc3ccccc32)n1C | -0.398
90 | Cc1nn(C)cc1C=NCCOCc1ccccc1 | 0.215
91 | COc1cc(N2CCCC2)c(OC)cc1/C=C(/C#N)c1cccc(Br)c1 | -0.124
92 | CCCN(CCO)CCCc1ccccc1 | 0.109

Row | SMILES | z-score
93 | CC(C)(C)NC(=O)C1CCN(S(=O)(=O)c2ccc(Br)cc2)CC1 | -0.0702
94 | CCOC(=O)c1nc2cc3n(c(C)c-2c1C)C(C)C(C)=C3C (configuration not stated) | -0.0669
95 | Cc1ccccc1-n1nnnc1SCC(N)=O | 0.269
96 | CCn1c2ccccc2c2nnc(SCC(=O)OCN3C(=O)c4ccccc4C3=O)nc21 | -0.087
97 | CC(=O)c1sc(Nc2nc(C)cc(C)n2)nc1C | -0.0137
98 | Cn1c(=O)c2c(-c3ccc(C(C)(C)C)cc3)n(CC3CCCO3)cc2n(C)c1=O (configuration not stated) | -0.395
99 | CCOC(=O)Cc1csc(SCC(=O)N2CCN(c3ccc(OC)cc3)CC2)n1 | 0.248
100 | COc1cc(/C=N/NC(=O)Cn2nc([N+](=O)[O-])cc2C)cc(Br)c1OCc1ccccc1 | 0.716
101 | Nn1c(SCC(=O)Nc2ccc3c(c2)OCCO3)nnc1-c1ccccn1 | -0.0196
102 | COc1cc(CNc2ccc(O)cc2)cc(Br)c1OCc1ccccc1F | -0.906
103 | CCc1ccc(OCCCC(=O)Nc2ccc(N3CCCCC3)cc2)cc1 | -0.107
104 | CC(O)c1cccc(NC2=CC(=O)CC(C)(C)C2)c1 (configuration not stated) | 0.0574
105 | O=C(Nc1ccc(Oc2cccnc2)cc1)c1ccccc1F | -0.151
106 | O=C(/C=C/c1ccc(N2CCCCC2)c([N+](=O)[O-])c1)c1ccc(S(=O)(=O)N2CCCC2)cc1 | 0.456
107 | O=C(OCCN1C(=O)c2cccc3c(N4CCOCC4)ccc(c23)C1=O)c1ccc(Cl)cc1Cl | -0.884
108 | COc1ccc(OC)c(N2C(=O)CC(Cc3ccc(Cl)cc3)C2=O)c1 (configuration not stated) | 0.431
109 | COC(=O)c1sccc1N/N=C/c1cccc(OC)c1O | -0.0285
110 | CC1C/C(=N/O)C(C)CN1 (configuration not stated) | 0.186
111 | CC(C)CNC(=O)c1ccccc1-c1ccccc1C(=O)O | -0.34
112 | Cc1ccc(-c2csc(NC(=O)CSc3ncn(-c4ccccc4)n3)n2)cc1 | -0.309
